In this assay the test system is K24384-001-R-PDC complex spheroid viability. The experiment in a line: Anticancer human tumor K24384-001-R-PDC patient-derived pancreatic adenocarcinoma cell line growth inhibition. The note with it: stronger effect = lower value. From the text: Multicellular complex tumor spheroid response to LSD1 Inhibitor Iadademstat in combination with a variety of drugs and investigational agents in selected tumor cell lines
The current study was undertaken to assess response to LSD1 inhibitors in combination with standard-of-care drugs and investigational agents in solid tumor complex spheroid models as well as in the K-562 leukemia. Complex spheroids include a stromal component modeled by human endothelial cells (HUVEC) and fibroblasts modeled by human mesenchymal stem cells (MSCs). The concentration ranges selected for each drug and investigational agent were based upon clinically achievable concentrations if the clinical Cmax of the agent was known.
Compounds. The drugs and investigational agents used in this study are listed on Table 1. All of the agents used, including staurosporine (NSC755774) and gemcitabine (NSC613327), were obtained from the Developmental Therapeutics Program, NCI. FDA-approved anticancer drugs are available from the NCI at http://dtp.nci.nih.gov/branches/dscb/oncology_drugset_explanation.html. Drugs and investigational agents were >95% pure by proton nuclear magnetic resonance (NMR) and liquid chromatography/mass spectrometry (LC/MS). Stock solutions were prepared at 400x in DMSO, stored at -70 degrees C, and diluted in fresh medium prior to their use. The final concentration of DMSO in cell culture wells never exceeded 0.25% (v/v). The FDA-approved anticancer drug set is available from the Developmental Therapeutics Program at https://dtp.cancer.gov/organization/dscb/obtaining/available_plates.htm. All drugs and investigational agents were tested over a range starting from a high concentration at or near the clinical Cmax and decreasing in half-log increments. If the clinical Cmax for an agent had not been determined, the highest concentration tested was 10 microM.
Cell Lines. The patient-derived cancer cell (PDC) lines: 292921-168-R-J2-PDC, K24384-001-R-PDC, and 521955-158-R2-J5-PDC pancreatic carcinomas, 556581-035-R-J1 ovarian carcinoma, 324938-238-R-J1-PDC, 855422-203-R-J1-PDC and 883617-216-R-J1-PDC urothelial bladder carcinomas, 743489-274-T-PDC renal cell carcinoma, 138582-R-J1 Merkel cell tumor, K60290-347-R-J1 and K57222-313-R-J1-PDC glioblastomas, 653999-131-R-J2-PDC, LG0703-F948-PDC, and 349418-098-R-PDC non-small cell lung carcinomas, 885512-296-R-J2-PDC, 171881-019-R-J1-PDC breast carcinomas and 186277-243-T-J2-PDC and 233499-124-R-J2-PDC colon carcinomas were obtained from the NCI Patient-Derived Models Repository (PDMR, https://pdmr.cancer.gov). The established cell lines NCI/ADR-RES (RRID:CVCL_14520 and OVCAR-5 (RRID:CVCL_1628) ovarian carcinomas, 786-O (RRID:CVCL_1051) and A498 (RRID:CVCL_A498) renal cell carcinoma, NCI-H211 (ATCC, cat. CRL-5824; RRID:CVCL_1529), NCI-H196 (ATCC, cat. CRL-5823, RRID:CVCL_1509), SW 1271 (ATCC, cat. CRL-2177, RRID:CVCL_1716) and NCI-H1876 (ATCC, cat. CRL-5902, RRID:CVCL_1503) small cell lung carcinomas, MDA-MB-231 (RRID:CVCL_0062) and MDA-MB-468 (RRID:CVCL_0419)breast carcinomas (10-12). Pooled donor human umbilical vein endothelial cells (HUVEC, Lonza, cat. CC-2519) and human mesenchymal stem cells (hMSC, Lonza, cat. PT-2501) were purchased from Lonza (Walkersville, MD).
Cell Culture. All cells were maintained in an incubator at 37 degrees C and 5% CO2 with 95% humidity. The PDC lines were cultured according to standard operating procedures established by the NCI PDMR (https://pdmr.cancer.gov). Briefly all PDCs were thawed and cultured in Matrigel-coated flasks prepared with a working solution of 1X Ham's F-12 nutrient mix, without supplementation (Invitrogen, Waltham, MA, cat. 11765054), 100 U/mL penicillin-streptomycin (Invitrogen, cat. 15140122), and 2.5% Matrigel (Corning Inc., Corning, NY, cat. 354248) for the first three passages. […]

The source holds more than one record for some entries. They are shown here; other results are not. There may be further records. Values that stand side by side repeat one measurement across runs, samples, wells, individuals or studies. Marks such as (2×) give the number of equal values in this list.
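Further: spheroids exposed to agents for seven days before luminescence viability reading.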

As for `NC1CC1c1ccc(-c2cccc(O)c2)cc1` (stereo not drawn), the viability, T/C (compound alone 0.316 µM) is 105, 87, 86.7, 78.7, 88.9, 91.7, 85.6, 76.8, 89.9, 89.2, 114, 93.5, 82.4, 69.2, 98.1, 78.4, 100, 101, 91.5, 85.2, 96.6, 92.1, 102, 78.5%; the viability, T/C (compound alone 1 µM) was 103, 86.6, 83.4, 77.2, 71.1, 99.6, 77.4, 85.6, 80.1, 84.5, 101, 97.3, 75.7, 88.6, 104, 98.2, 76, 99.9 (2×), 118, 87.6, 90.7, 92.1, 97.7, 93.6%; the viability, T/C (compound alone 3.16 µM) is 108, 81.4, 74.2, 73.2, 76, 87.7, 91.8, 69.5, 78.9, 82.8, 94.8, 96.2, 69.3, 72.3, 99.1, 93.1, 64.3, 105, 112, 75.6, 73.4, 91.4, 104, 111, 78.1%; the viability, T/C (compound alone 10 µM) is 113, 109 (2×), 80, 79, 78.9, 106 (3×), 97.2, 74.5, 66.6, 72, 103, 62.6, 67.5, 100, 77.8, 95.7 (2×), 115, 71.7, 68, 102, 67.8%.
As for `NC1CCC(NC2CC2c2ccccc2)CC1` (stereo not drawn), the viability, T/C runs as follows: (compound alone 0.1 µM) 86.5, 85.6, 99.8, 87, 94.8, 74.2, 78.7, 80.5, 81.2, 77.9, 92.1, 84.6, 77.5, 89.4, 78.8, 98.1, 85.9, 89.8, 90.4, 87.9, 85.3, 84.8, 93.1, 80.4, 72.2%; (compound alone 1 µM) 70.8, 83.8, 79.8, 81, 96, 76.3, 88.2, 89.6, 85.2, 76.7, 78, 83.2, 69.1, 70.7, 71.8, 89.3, 81.3, 101, 69.6, 79.1, 81.2, 63.9, 75.4, 82.6, 78.2%; (compound alone 3.16 µM) 68.6, 78.2, 96.3, 81 (2×), 81.3, 86.6, 84.3, 78.6, 98.5, 86.9, 72.5, 90.9, 80.5, 82.9, 71.6, 91, 85.8, 79.9 (2×), 71.7, 74.3, 67.9, 78.3, 72%; (compound alone 10 µM) 78.1, 73.2, 91, 91.1, 74.6, 74.7, 67.2, 80.4, 75.8 (2×), 70.8, 76, 76.4, 81, 88.5, 77.4, 75.5, 76.2, 65.4, 85.6, 63.9, 75.2, 69.4%.

The term viability, T/C denotes the result in the treated group divided by that in the control group, in per cent.

The values above are taken from PubChem BioAssay AID1918949 (Molecular Pharmacology Branch, DTP, NCI, 2023).
